# From PubChem BioAssay AID1814 (Broad Institute, 2009)
# Out of some 300,000 compounds screened, about 22,000 (7.3%) were called active. This list was built around the results that the source calls inconclusive (neither active nor inactive); the mix of calls is not that of the screen. Cut-off read from the data, not from the text of the source: active = activity score below about -60%; inconclusive = mostly about -28% to -61%; inactive = positive scores.
# Assay: Activators via SNCA 5'UTR binding, MLPCN (AID 1814)
# Details: alpha-synuclein 5'UTR reporter, activators screen; active compounds read low; tested at 7.5 µM
row,SMILES,activity score
1,C=C(C)C1(O)OC(=O)C=C1OC (centres undefined),inconclusive: -60.4%
2,CN(C)C(=O)CN1C(=O)NC(c2ccccc2)(c2ccccc2)C1=O,inconclusive: -44.1%
3,COc1cc(-c2nnc(SCC(=O)/C(C#N)=C(\C)N)o2)cc(OC)c1OC,inconclusive: -44.7%
4,Oc1cccc2ccc(Nc3ccccn3)nc12,inactive: 98.4%
5,Cc1ccc(S(=O)(=O)CCC(=O)N(CCCN2CCOCC2)c2nc3ccccc3s2)cc1,active: -119%
6,O=C(Cc1ccccc1F)Nc1ccc(SC(F)F)cc1,active: -137%
7,CCOC(=O)/C=C/C(=O)Nc1ccc(S(=O)(=O)N(C)c2ccccc2)cc1,inconclusive: -37.1%
8,O=C(Cn1nc2sc3ccccc3n2c(=O)c1=O)c1cccs1,inconclusive: -37.1%
9,COc1ccc(NC(=O)C(=O)NCC2CCCN2S(=O)(=O)c2ccc(C)cc2)cc1 (centres undefined),inactive: 90.6%
10,O=c1c2ccccc2[nH]c(=S)n1CCc1ccccc1,active: -123%
11,Cn1cccc1/C=C1\CCc2ccccc2C1=O,inconclusive: -53.9%
12,O=C(Nc1ccc(NC(=O)C2CC2)nc1)c1cnccn1,inconclusive: -47.9%
13,COc1cccc(/C=N/Nc2nnc3c(n2)[nH]c2ccccc23)c1OC,active: -83.7%
14,COc1ccc(-c2cn3cccnc3n2)cc1,active: -75.4%
15,CC(C)N(Cc1ccc(F)cc1)C(=O)c1cc2ccccc2oc1=O,inconclusive: -59.9%
16,O=C(CSc1n[nH]c(-c2ccccn2)n1)Nc1ccc(Cl)cc1,inactive: 73.6%
17,Oc1ccccc1CNCCCNCc1ccccc1O,inconclusive: -47.2%
18,Cc1cccc(-n2ncc3c(NCc4ccccn4)ncnc32)c1,active: -113%
19,CCOC(=O)C(CC(=O)c1ccccc1)CC(=O)c1ccccc1,active: -105%
20,O=C(c1cnsn1)N1CCC(CO)(Cc2cccc(F)c2)CC1,active: -138%
21,COc1cc(/C=N/NC(=O)c2cccs2)ccc1O,inconclusive: -59.3%
22,Cc1ccc2nc(NC(=O)CCNS(=O)(=O)c3ccc(Br)s3)sc2c1,inconclusive: -41.2%
23,COC(=O)c1ccc(C2C3=C(Nc4nnnn42)c2ccccc2OC3)cc1 (centres undefined),inconclusive: -49.4%
24,CN(C)CCn1c2ccccc2c2nc3ccc([N+](=O)[O-])cc3cc21,inactive: 104%

row,SMILES,activity score
1,CCc1nc(N)nc(N)c1-c1ccc(Cl)cc1,inactive: 84.5%
2,O=C(Nc1cccnc1)c1ccc(CN2CCc3ccccc3C2)cc1,active: -67.6%
3,CN1CCN(CCCNC(=O)c2ccc(/C=C3\Oc4ccccc4N(Cc4ccc(Cl)cc4)C3=O)cc2)CC1,inactive: 96.5%
4,Cc1c(NC(=O)C(C)Sc2ncnc3ccccc23)c(=O)n(-c2ccccc2)n1C (centres undefined),inconclusive: -48.8%
5,Cc1ccc(N2CN=c3s/c(=C\c4cccnc4)c(=O)n3C2)cc1,inconclusive: -53.7%
6,O=C1c2ccccc2NC(c2ccc(-c3cccc(Cl)c3)o2)N1O (centres undefined),active: -145%
7,Oc1nc(Nc2cccc(Cl)c2)sc1/C=C1\C=Nc2ccccc21,inconclusive: -60.5%
8,CCOC(=O)c1csc(NC(=O)c2cc3ccccc3o2)n1,active: -125%
9,COc1ccc(NC(=O)/C(Cl)=C(/Cl)S(=O)Cc2ccccc2)cn1 (centres undefined),inactive: 121%
10,O=C(Nc1nnc(SCC(=O)N2CCOCC2)s1)c1ccccc1Cl,inconclusive: -49.1%
11,CC(C)n1c(SCC(=O)N2c3ccccc3Sc3ccccc32)nc2c1c(=O)n(C)c(=O)n2C,inactive: 58.3%
12,O=C(COc1ccccc1-c1ccccc1)N/N=C/c1cccc2ccccc12,inactive: 75.3%
13,Cc1c(CCC(=O)N2CCC[C@H]2C(=O)O)c(=O)oc2cc3oc4c(c3cc12)CCCC4,inactive: 76.9%
14,C(C#CCCCCCCCCC[n+]1ccccc1)#CCCCCCCCCC[n+]1ccccc1,inactive: 73.3%
15,CC(C)(C)NC(=O)Cn1nnc(-c2cccs2)n1,inconclusive: -44.8%
16,O=C(c1ccc(Br)cc1)c1cc([N+](=O)[O-])ccc1N1CCCCC1,inactive: 91.5%
17,CCCNC(=O)c1ccc2c(=O)c(O)c(-c3ccc(C)cc3)[nH]c2c1,inactive: 68.6%
18,O=C(NCc1ccccc1)c1nc(-c2cccs2)no1,inconclusive: -59.4%
19,Cc1cc(C)c2nc(N3CCC(C(=O)NCCCN4CC(C)CC(C)C4)CC3)sc2c1 (centres undefined),inconclusive: -61.4%
20,COc1ccc(NC(=O)N/C=C/c2ccccc2)cc1,inconclusive: -52.8%
21,COC(=O)c1sccc1NC(=S)Nc1ccc(C)cc1,active: -77.8%
22,O=C(NNC1=C(C(=O)C(F)(F)F)CCC1)c1cccnc1,inconclusive: -53.7%
23,COc1cc(/C=C/C(=O)Nc2ccc3[nH]c(=O)[nH]c3c2)cc(OC)c1OC,inconclusive: -23.6%
24,Cc1c(O)c(=O)ccn1Cc1ccccc1,inactive: 68.1%

row,SMILES,activity score
1,COC(=O)c1ccc(C(=O)Nc2ccc(C(C)C)cc2N)cc1,inconclusive: -52.3%
2,COc1ccc(NC(=O)c2ccccc2NC(=O)C2CCCO2)cc1 (centres undefined),inconclusive: -52.4%
3,CCc1cccc(NC(=O)CN(C)S(=O)(=O)c2cccs2)c1,inconclusive: -42.3%
4,Cc1cnc(NC(=O)c2cncc(Br)c2)s1,inconclusive: -39.8%
5,O=C(NC(=S)Nc1cccnc1Cl)c1ccc(Cl)cc1,active: -154%
6,CCn1c2ccccc2c2cc(NC(=O)c3ccc([N+](=O)[O-])cc3)ccc21,inconclusive: -34.3%
7,Nc1ccc(C(=O)N/N=C/c2cn(Cc3cccc(F)c3)c3ccccc23)cc1,inactive: 69.8%
8,O=C(/C=C/c1ccccc1)NC(=S)Nc1ccccc1,inconclusive: -51.5%
9,COc1cc2c(cc1OC)-c1cc(Nc3ccc(N(C)C)cc3)nc(=O)n1CC2,inactive: 51.7%
10,COc1ccc(C(=O)/C=C/C(=O)N(CC(=O)NC2CCCCC2)Cc2ccccc2)c(O)c1,inactive: 66.6%
11,COC(=O)Nc1nc2ccc(Sc3ccccc3)cc2[nH]1,inactive: 59.2%
12,Oc1ccccc1N=Nc1ccccc1O,inactive: 58%
13,CCN1CCN(c2cc3nc(C)n(Cc4ccccc4)c(=O)c3cc2NC(=O)c2ccccc2F)CC1,inactive: 65.1%
14,COc1ccccc1NC(=O)c1cnc(Nc2ccccc2OC)c2ccccc12,inactive: 101%
15,O=C(Nc1sc2c(c1C(=O)O)CCCCC2)c1ccccc1F,inconclusive: -61%
16,C/C(=N/NC(=O)c1ccccn1)c1c[nH]c2ccccc12,inconclusive: -58.1%
17,c1ccc2nc3c(nc2c1)c1ccccc1n3CCN1CCOCC1,active: -80.3%
18,CN(C(=O)c1ccccn1)C1(C(=O)NC2CCCCC2)CCCCC1,inconclusive: -41.8%
19,CCCCc1c(C)c(C#N)c2nc3ccccc3n2c1Cl,inactive: 109%
20,O=C(Nc1cccc(Cl)c1)Nc1csc([N+](=O)[O-])c1,inconclusive: -60.5%
21,CCOC(=O)c1sc(=NC(=O)c2cc(OC)c(OC)c(OC)c2)n(C)c1C,inconclusive: -26.3%
22,CS(=O)(=O)c1ccc2c(c1)SC1=NC(=O)/C(=C/c3ccco3)C(=N)N12,inconclusive: -46.7%
23,COc1ccc(NCC(=O)N/N=C2\CCc3ccccc32)cc1,inconclusive: -48.6%
24,Cc1cc2cc(CCNC(=O)c3cccs3)c(=O)[nH]c2cc1C,active: -149%

row,SMILES,activity score
1,Cc1ccccc1C(=O)Nc1nnc(SCC(=O)NCc2ccco2)s1,inconclusive: -42.9%
2,COC(=O)Nc1nnc(-c2ccccc2OC)s1,inconclusive: -58.7%
3,O=C(CCN1C(=O)/C(=C/c2ccccc2F)SC1=S)NC1C=CS(=O)(=O)C1 (centres undefined),active: -62.2%
4,CCCC(=O)NC(c1ccc(Cl)cc1Cl)c1ccc2cccnc2c1O (centres undefined),inactive: 64.3%
5,Cc1cc(C)c(C#N)c(SCc2nnc(-c3ccccc3)o2)n1,inactive: 102%
6,COc1ccc(C(=O)/C=C/C(=O)N(CC(=O)NC2CCCCC2)CC2CCCO2)c(O)c1 (centres undefined),inactive: 73.4%
7,O=C(Nc1ccc2c(c1)OCCO2)C1CCN(c2ncccn2)CC1,inconclusive: -53.5%
8,CC(=O)N(C(C)=O)n1c(/C=C/c2ccc([N+](=O)[O-])cc2)nc2ccccc2c1=O,inconclusive: -56.6%
9,N#Cc1ccsc1NC(=O)CSc1nnnn1-c1ccc(O)cc1,inconclusive: -54%
10,O=C(N/N=C/c1cc(Br)ccc1O)C(=O)Nc1ccccc1OC(F)(F)C(F)F,inactive: 82.2%
11,COc1ccc(Cn2c(SCc3cc(C)ccc3C)nc3cc(OC)c(OC)cc3c2=N)cc1,inactive: 54.8%
12,O=C(OCc1ccc(Cl)cc1)c1ccccc1C(=O)c1ccccc1,inconclusive: -38%
13,COc1ccc(S(=O)(=O)N2CN(Cc3ccco3)c3nc4ccccc4nc32)cc1,inconclusive: -54.2%
14,CSc1ccc(/C=N/NC(=O)c2sccc2C)cc1,active: -88.7%
15,CNS(=O)(=O)c1cccc(C(=O)Nc2cccc(Cl)c2)c1,active: -111%
16,COc1ccc(C(=O)CSc2nnc(NC(=O)C3CC(=O)N(c4ccccc4)C3)s2)cc1 (centres undefined),inconclusive: -50.3%
17,c1ccc(-c2nnc(SCCC3OCCCO3)o2)cc1,active: -111%
18,Cc1nc2ccc(NC(=O)c3sccc3C)cc2s1,active: -164%
19,Cc1ccc(NC(=S)N2CCCC(CO)C2)c(C)c1 (centres undefined),inconclusive: -48.7%
20,Cc1ccsc1C(=O)OCC(=O)c1cc(C)n(CC2CCCO2)c1C (centres undefined),inactive: 79.6%
21,CN(C)c1ccc(/C=C/C(O)=C2/C(=O)N(C)C3(C)CC2c2ccccc2O3)cc1 (centres undefined),inconclusive: -46%
22,O=C(Nc1ccc(N2CCOCC2)cc1)c1cn2ccccc2n1,inactive: 65.5%
